The source gives no read counts; variants with many changes may rest on few reads.
B1: LINE1-mini (parent)
chain: GGCAGAGCUCAACACAGCGUGGCAAAGUGGCUGUGGCUAGACUGCC

Variants of: B1
Assay: self-cleavage, relative activity (ratio to wild type); higher = more cleavage; in vitro, sequencing; the parent is a self-cleaving ribozyme

| Variant | self-cleavage |
| --- | --- |
| A4G G19C G21U | 0.2 |
| A4U U28C C31G | 0.02 |
| A4G C18A U28G C42G | 0.02 |
| A4G G17C U20C C23G | 0.22 |
| A4U C8U C15U U38A | 0.24 |
| A4G G29U A41C | 0.04 |
| A4G G7A A11U C46G | 0.04 |
| A4G C10G G35C A39U A41C C45U | 0.01 |
| A4U C13U A16C U32A U38G | 0.01 |
| A4G G7C A12G | 0.22 |
| A4U G21A G33A A39U | 0.05 |
| G5A A6C G19C A26G G40U C45A | 0.01 |
| A4G C13G G44U C46U | 0.01 |
| A4G G7C G27A | 0.07 |
| A4G C10G U20A G22A U28A G40A | 0.01 |
| A4G C42G C45U | 0.15 |
| A4U G5A G40U | 0.07 |
| A4U A6G G17C G19U C42A | 0.35 |
| A4U G7A G22U U38C G40U A41C C46G | 0.1 |
| A4G G7U G19A G21U | 0.02 |
| A4U C31G U34A | 0.02 |
| A4U A12G C13G | 0.04 |
| A4G G7A C42A | 0.49 |
| A4U C13U C15U A39G C46U | 0.02 |

| Variant | self-cleavage |
| --- | --- |
| A4G G17U A24U G35U G36A | 0.26 |
| A4G G5U C15A G29U | 0.11 |
| A4U G21U G40U | 0.09 |
| A4G C31G G33U | 0.14 |
| A4U C8A C15U | 0.1 |
| A4U A12G C18A U28A | 0.01 |
| A4U C8A U34A | 0.04 |
| A4G C13A G22C U43G | 0.03 |
| A4G C18U U32A A39C | 0.05 |
| A4G G22A G27A U38G | 0.03 |
| A4G C8U A12G G17C G27U U34G U43G C46G | 0.14 |
| G5A A6C C31A A39G | 0.02 |
| A4U C15U U28C C42G | 0.01 |
| A4U G7U G40A G44U | 0.19 |
| A4U G17U A25U G36C | 0.01 |
| A4G U9C U20G U28C C31A | 0.02 |
| A4U G5U C15A G17U G44U | 0.03 |
| A4G C10A C13U C23A | 0.01 |
| A4G G27U U32G C37U | 0.13 |
| A4U C10G U20C U38C | 0.01 |
| A4U A16G C18U U38G | 0.06 |
| A4G G7A G40C | 0.3 |
| A4U G29U G30A A41C | 0.08 |
| A4G G17U G29U | 0.11 |

| Variant | self-cleavage |
| --- | --- |
| A4U G5C C45U | 0.05 |
| A4G G17C G36A | 0.22 |
| A4U G5A C8A U32A C46U | 0.1 |
| A4G U9A G19C G33A C37A | 0.16 |
| A4G C10A U20G | 0.04 |
| A4U C23A A24G G29A | 0.08 |
| A4U G27C G29C | 0.31 |
| A4G U20A A39U | 0.34 |
| A4G G36U G40U | 0.08 |
| A4U C15U G17C A24G C31U G40A | 0.02 |
| A4G C23A G40A C42U | 0.03 |
| A4G G5U C45G | 0.02 |
| A4U G5C A6U A12G A39C | 0.01 |
| A4U G27A G33A G40A | 0.07 |
| A4U C15A U20C | 0.05 |
| A4U C13A G19A C23A | 0 |
| A4U G22U G30U C42G | 0.02 |
| A4G C8U A14C G21U G22C U32G G40U | 0.05 |
| A4U C10A A41C | 0.01 |
| A4G G33A G40U | 0.12 |
| A4U C23U G30A | 0.2 |
| A4G U28G C37G A39U | 0.09 |
| A4U G22U C23U A39U | 0.08 |
| A4G C10A C13U C42U | 0.01 |

| Variant | self-cleavage |
| --- | --- |
| A4U C23G A24G C31A | 0.11 |
| A4G C13A G17A | 0.01 |
| A4U U9C C13G A25U C37U U38C | 0.02 |
| A4G U28A U32C | 0.07 |
| A4G G17U C18A | 0.22 |
| A4G G19C G22A | 0.12 |
| A4G U34A C37G | 0.04 |
| A4U C15U C18G C31A | 0.22 |
| A4G C18U C31U U43G C46U | 0.02 |
| A4G G29C C45A | 0.17 |
| A4G G7C U9G C10A C15A C23U | 0.01 |
| A4U G22C A24G | 0.07 |
| A4U G22C G30C | 0.14 |
| A4G G19C C31U C37G | 0.05 |
| A4G G22U G30U C46U | 0.1 |
| A4G G17U U28C | 0.2 |
| A4U C10A G29A U32G G40U | 0.03 |
| A4U A24U G36C G44U | 0.04 |
| A4U C23G A25G G29U G36U | 0.03 |
| A4G G5U U9C A24C C31A G33U | 0.02 |
| A4U G29C C42G | 0.13 |
| A4U A6G G7U C18A | 0.02 |
| A4G C13U G33U | 0.05 |
| A4G C8U C10U G17C A25U G29U G33U | 0.16 |

| Variant | self-cleavage |
| --- | --- |
| A4G G5A G27U G40A | 0.07 |
| A4G G5U C8G G17A C23A C31G | 0.03 |
| A4U G35U G40C | 0.08 |
| A4U U34G G36A | 0 |
| A4U C10G C15A G36A | 0.06 |
| A4G C13U G17C G30C C45A | 0.03 |
| A4U C23A G36U | 0.06 |
| A4U U20C A25G G29A C42U C46U | 0 |
| A4G G29A G30U C37A A41G U43G | 0 |
| A4U G35U C46G | 0.05 |
| A4G C10G C37G | 0.01 |
| A4U A25U C31G G40A | 0.02 |
| A4U G19U A26U | 0.03 |
| A4G G21A U32C A39G | 0.12 |
| A4G G7U U9G | 0.18 |
| A4U A6U A12G C18A G33C | 0.01 |
| A4U A6U G29U C31A G35C | 0.16 |
| A4G C13U A14C G22A C46G | 0.07 |
| A4U C31A G33U | 0.05 |
| A4G C8G G29U G35U | 0.04 |
| A4G C10G C15G G27A A41G | 0.01 |
| A4U G5A A12U U28C | 0.02 |
| A4U U20G G35A | 0.05 |
| A4G G30A A39U | 0.15 |

| Variant | self-cleavage |
| --- | --- |
| A4G G5A C31G U34A A39C | 0.03 |
| A4U C42U G44A | 0.19 |
| A4U A6G C18G G33U C37U | 0.06 |
| A4U C10A C15U A24G | 0.07 |
| A4G C10A G27C C31G G33A | 0 |
| A4G C31A U34G | 0.03 |
| A4U A26C U43A | 1.08 |
| A4U G21A G22C A26C U32G | 0.06 |
| A4U G35A U38C U43G | 0.01 |
| A4U G29U G40C U43A | 0.06 |
| A4U A14C C37U | 0.06 |
| A4U G29U U38C | 0.09 |
| A4G G5U C10A C15A G40A | 0.02 |
| A4U G19A C37U | 0.31 |
| A4U A14C C31G | 0 |
| A4U A6U C8U U20C G33C G40C | 0.03 |
| A4U A25C A26G C31G G40U | 0.03 |
| A4G C10U C13U | 0.12 |
| A4U C10U A12U G40C | 0.05 |
| A4G C13G C15G C37G C46G | 0.04 |
| A4G G7C G19A C46U | 0.1 |
| A4U G17U U28C U34G G36C | 0.06 |
| A4U C13G C45A | 0.06 |
| A4U U9A C13G G22A G29C G36U A39C | 0.11 |

| Variant | self-cleavage |
| --- | --- |
| A4U U20G A26G G27U U28G C37A C45U | 0.03 |
| A4U G22C G33C | 0.04 |
| A4G G7U C8A A12C C45A | 0.21 |
| A4U U9A C23A | 0.11 |
| A4G G7U A16C A24C C31A U38G A41U | 0.01 |
| A4G U34C G36C | 0.01 |
| A4U G21C U28A G30C | 0.05 |
| A4G C10G A11U A12C C23A C31U C42U | 0.02 |
| A4U C13U C42U | 0.05 |
| A4U A11G G29A | 0.04 |
| A4G C10A G17C U34G C45G | 0.02 |
| A4G G7A C18A G27U C31U G44U C45G | 0.07 |
| A4G G19U G40A | 0.08 |
| A4G C15A C37U | 0.17 |
| A4U A6U C18A C31A C46A | 0.06 |
| A4U C15G U43A | 0 |
| A4G C10G G27U C31U G44U | 0.02 |
| A4G G29U G30C C46U | 0.05 |
| A4G G17U G27C G35A | 0.18 |
| A4U A14U G21C G33C C42U | 0.08 |
| A4G C15A C18U | 0.09 |
| A4G G17U G29A G44C C46U | 0.04 |
| A4U G27U U28G | 0.08 |
